Reference: PubChem BioAssay AID743262 (National Center for Advancing Translational Sciences (NCATS), 2014)
In all, about 1,300 compounds went through this assay and about 25 (2%) were called active. Roughly 9% stayed inconclusive and do not appear here. Calls come from the whole dose curve; as a rule, active = well fitted activation curve with a large enough effect; inconclusive = small, poorly fitted or top-dose-only effect; inactive = flat fitted curve, though single readings scatter. Some of the results follow.

Biological target: Glucagon-like peptide 1 receptor (Homo sapiens) (UniProt P43220)
Test: qHTS of GLP-1 Receptor Agonists: Hit Validation; note: % of control where 0% means no effect
Conditions: HEK293 GLP-1R, cAMP-response luciferase, 4-6 h; series mostly up to 46.1 µM; activation: at the top concentration
Summary of the method: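 Luminescence from a cAMP-responsive luciferase reporter was read 12 min after detection reagent at RT. Before that, HEK293 cells stably expressing GLP-1R plus reporter, seeded 12 h earlier, were exposed to compound for 4-6 hr at 37 deg C.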

UniProt P43220, sequence (P43220 whole entry, looked up): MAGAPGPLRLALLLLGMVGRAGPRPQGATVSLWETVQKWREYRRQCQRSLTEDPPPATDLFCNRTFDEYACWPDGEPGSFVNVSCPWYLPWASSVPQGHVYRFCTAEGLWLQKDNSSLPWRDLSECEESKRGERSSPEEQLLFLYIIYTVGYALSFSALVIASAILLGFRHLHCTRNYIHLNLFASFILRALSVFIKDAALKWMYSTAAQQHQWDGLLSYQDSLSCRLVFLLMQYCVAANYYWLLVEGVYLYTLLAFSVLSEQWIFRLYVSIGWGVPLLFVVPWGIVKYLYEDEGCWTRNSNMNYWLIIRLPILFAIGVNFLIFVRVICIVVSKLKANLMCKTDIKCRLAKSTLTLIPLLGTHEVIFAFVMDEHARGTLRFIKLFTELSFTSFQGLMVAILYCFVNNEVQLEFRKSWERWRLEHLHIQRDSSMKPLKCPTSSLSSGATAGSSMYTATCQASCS

SMILES | activation | Potency
COC(=O)c1ccc(Cn2nc(-c3cc(C)ccc3C)ccc2=O)cc1 | inactive: 1.3% | 
c1ccc(-c2nc(NCc3cccnc3)c3ccccc3n2)cc1 | inactive: 1.56% | 
CCOC(=O)Nc1sc2c(c1C#N)CCC(C)C2 (stereo not given) | inactive: 7.33% | 
CCC(CC)c1nnc(NC(=O)CCc2ccccc2)s1 | inactive: -0.463% | 
O=[N+]([O-])c1cccnc1NCCNc1ncc(C(F)(F)F)cc1Cl | inactive: 4.34% | 
Nc1nc(Nc2ccccc2F)nc(NCCO)c1[N+](=O)[O-] | inactive: 5.51% | 
Cc1c(C(=O)N(C)CCOc2ccccc2)oc2c(Cl)cccc12 | inactive: 11.5% | 
COc1ccc(N(C(=O)/C=C/c2ccc(OC)c(OC)c2)C2=CC3CCC(C2)N3C)cc1 (stereo not given) | inactive: 18.9% | 
N#Cc1ccc(-c2cccs2)nc1SCc1cccnc1 | inactive: 26% | 
COc1cc2c(cc1OC)CN(C(=O)c1ccc(S(=O)(=O)N(C)c3ccccc3)cc1)CC2 | inactive: 16.1% | 
CCC(C(=O)NC1CCCC1)N(C(=O)Cn1nnc(-c2ccc(OC)c(OC)c2)n1)C1CCCCC1 (stereo not given) | inactive: 5.83% | 
COc1ccc(Nc2nc(-c3sc(C)nc3C)cs2)cc1 | inactive: 11.7% | 
CN(C)/C=N/c1nc2nccc(-c3ccccc3)n2n1 | inactive: -0.929% | 
CCOc1ccccc1Nc1nc(-c2sc(C)nc2C)cs1 | inactive: 11.2% | 
COc1cc(-c2ccc(=O)[nH]n2)ccc1OC(F)F |  | inactive
Cc1ccc(OCC(=O)NC2CCCC(C)C2C)c([N+](=O)[O-])n1 (stereo not given) | inactive: 6.59% | 
COc1ccc(S(=O)(=O)N2CCc3ccccc32)cc1C(=O)Nc1cccnc1 | inactive: 4.12% | 
COc1ccc(-c2nc(C#N)c(NC(C)c3ccccc3)o2)cc1OC (stereo not given) | inactive: 24.4% | 
C=CCN1C(=O)/C(=C/C(=O)OC)S/C1=N\NC(=O)c1ccccc1 | inactive: -0.421% | 
CCN(C(=O)c1cc2c(=O)n3ccccc3nc2s1)C1CCCCC1 | inactive: 24.2% | 
CNC(C)C#Cc1ccc2c(=O)c3ccccc3oc2c1 (stereo not given) | inactive: 5.08% | 
COc1ccc(-c2cn3cc(Cl)ccc3n2)cc1OC | inactive: 7.52% | 
CCOC(=O)c1ccc(N)cc1 | inactive: -0.583% [at 19.8 µM] | 

SMILES | activation | Potency
COc1cc(/C=N/N(CCO)C2=NS(=O)(=O)c3ccccc32)cc(OC)c1OC | inactive: 3.77% | 
c1ccc(Cn2nnc3c(N4CCC5(CC4)OCCO5)ncnc32)cc1 | inactive: -0.288% | 
CCOC(=O)c1c(NC(=O)Cc2ccccc2)sc2c1CC(C)(C)NC2(C)C | inactive: 8.42% | 
CNc1nccc(-c2ccc(Cl)cc2)c1C#N | inactive: 2.52% | 
COc1ccc(NC(=O)c2cccnc2)cc1OCC(C)C | inactive: 0.0143% | 
CCCCc1cc2c(cc1NC(=O)CN1CCCCC1)OCCO2 | inactive: 1.46% | 
Cc1cc(N)n(-c2nc(-c3cccnc3)nc3ccccc23)n1 | inactive: 19.2% | 
CC1=C/C(=N\Nc2ccccc2[N+](=O)[O-])CC(C)(C)C1 | inactive: 2.04% | 
COc1ccc(C(CNC(=O)c2oc3ccccc3c2C)N2CCCC2)cc1 (stereo not given) | inactive: -0.488% | 
COc1ccc(/C=N\NC(=O)c2cccc(F)c2)cc1COc1ccccc1 | inactive: 14.9% | 
COc1ccc(N/C=C/C(=O)c2ccc(OC)c(OC)c2)cc1 | inactive: 2.3% | 
CN(C)C(=O)CNC(=O)Cc1ccccc1 | inactive: 3.4% | 
COc1ccc(CCN(C)C(=O)CCCN2C(=O)c3cccc4cccc(c34)C2=O)cc1OC | inactive: 20.4% | 
C=CCn1c(SCc2c(C)noc2C)nc2ccccc2c1=O | inactive: 21.1% | 
O=C(OCCN1C(=O)c2ccccc2C1=O)c1cc(S(=O)(=O)N2CCOCC2)ccc1F | inactive: 14.3% | 
Nc1ccc(OCc2ccccc2)cc1 | inactive: -1.33% | 
COc1ccc(-c2nc(C#N)c(N3CCc4ccccc4C3)o2)cc1OC | inactive: 14.9% | 
COc1ccc(/C=N/NC(=O)C(C)n2nnc3ccccc32)cc1OC (stereo not given) | inactive: 25.1% | 
COCc1cc(C)nc2sc(C(=O)Nc3cccc(OC)c3)c(N)c12 | inactive: 16.2% | 
CN(c1ccccc1)c1nc(N)c([N+](=O)[O-])c(NCc2ccco2)n1 | inactive: 20.5% | 
CCc1ccc2c(CN(C)Cc3ccccc3OC)cc(=O)oc2c1 | inactive: 4.09% | 
COc1ccc(CCC(=O)OCC(=O)c2ccc[nH]2)cc1OC | inactive: -0.276% | 
COC(=O)c1c(NC(=O)Cc2cccs2)sc(C(=O)N2CCCCC2)c1C | inactive: 5.7% | 

SMILES | activation | Potency
Cc1nc2sc(C#N)c(N)c2c2c1CCCC2 | inactive: 8% | 
Nc1nc2sc3c(c2c(=O)s1)CCCC3 | inactive: 19.1% | 
Cn1c(=O)oc2cc(S(=O)(=O)NC3CCCCCCC3)ccc21 | inactive: 3.72% | 
CCCSc1ccc2nc(NC(=O)OC)[nH]c2c1 | inactive: 9.19% [at 19.8 µM] | 
COc1ccccc1Oc1ccc(N/C=C/C(=O)c2ccc(C)o2)cc1 | inactive: 9.43% | 
COCc1cc(C)nc2sc(C(=O)OC(C)C)c(N)c12 | inactive: 6.32% | 
CCn1c2ccccc2c2nnc(SCc3ccc(C(=O)OC)o3)nc21 | inactive: 20.9% | 
Cc1cc(NC2CCCC2)n2nc(C)c(-c3ccccc3)c2n1 | inactive: 5.06% | 
CC(C)Cc1nc(NCCN2CCOCC2)c(C#N)c2c1COC(C)(C)C2 | inactive: 1.81% | 
CCCc1nc2n[nH]c(N)c2c2c1CCCC2 | inactive: 13% | 
CCCOc1ccc2c3c(c(=O)oc2c1)CCCC3 | inactive: 2.52% | 
O=c1c2c3c(sc2nc(NCCO)n1Cc1ccco1)CCCCC3 | inactive: 6.54% | 
COc1ccc(/C=N/Nc2ccccn2)cc1OC | inactive: 5.71% | 
Cc1cccc(NC(=O)CSc2nc3ccccc3c(=O)n2C)c1 | inactive: 1.65% | 
c1ccc(Cc2nnc3sc(-c4cccs4)nn23)cc1 | inactive: 4.08% | 
CC(C)C(=O)COc1c2occc2cc2ccc(=O)oc12 | inactive: -0.26% | 
Cc1ccc(Oc2nc(CN3CCOCC3)nc3sc4c(c23)CCC(C)C4)cc1 (stereo not given) | inactive: 8.1% | 
COC(=O)c1ccc(OCC2c3cc(OC)c(OC)cc3CCN2C(C)=O)cc1 (stereo not given) | inactive: 9.94% | 
COc1ccc(/C=N/OCC(=O)NC(c2ccccc2)c2ccccc2)cc1OC | inactive: 6.47% | 
CCNC(=O)OCCC12CC3CC(CC(C3)C1)C2 | inactive: 3.87% | 
CCOC(=O)c1c(-c2cccc([N+](=O)[O-])c2)cn2ccccc12 | inactive: 4.04% | 
CCNc1nnc(CSc2nc3ccccc3s2)s1 | inactive: 2.83% | 
COc1cc2cnc(-c3ccccc3)c(C(=O)c3ccc(F)cc3)c2cc1OC | inactive: 9.41% | 

SMILES | activation | Potency
CCCCc1[nH]c(=O)c(C#N)c2c1CCCC2 | inactive: 2.15% | 
CSc1nnc(C)c(/C=C/Nc2ccc(F)cc2)n1 | inactive: 12.1% | 
COc1ccc(-c2oc3cccnc3c2-c2ccc(OC)nc2)cc1 | inactive: 18.1% | 
COc1ccc(-c2cc(C(=O)NC3=NCCS3)c3ccccc3n2)cc1OC | inactive: 8.3% | 
CCOc1ccc(C(=O)NC(=S)Nc2ncccc2C)cc1[N+](=O)[O-] | inactive: 2.11% | 
COc1cc(/C=C2/SC(=Nc3ccc(O)cc3)NC2=O)cc(OC)c1O | inactive: 24.5% | 
CSc1ncccc1C(=O)OCc1c(F)cccc1Cl | inactive: 5.02% | 
COc1ccc(-n2cnc3cc(NCc4ccco4)ccc32)cc1 | inactive: 6.51% | 
COc1ccc(-c2nnc(SCc3ccccc3F)o2)cc1OC | inactive: 7.03% | 
O=CNc1cc(-c2ccccc2)cn2c(-c3ccc(F)c(Cl)c3)cnc12 | inactive: 28% | 
CCOC(=O)Nc1cc(OC)cc2ccc(C)nc12 | inactive: -0.461% | 
CC(C)(C)CNc1cc(N2CCOCC2)ccc1[N+](=O)[O-] | inactive: 7.76% | 
O=C(COc1ccccc1Cc1ccccc1)Nc1cccc(S(=O)(=O)N2CCOCC2)c1 | inactive: 4.02% | 
CCOC(=O)c1c(-c2ccccc2)nc2cc(C)ccn12 | inactive: 4.34% | 
CCOc1ccc(C2c3cc(OC)c(OC)cc3CC(=O)N2c2ccccc2)cc1 (stereo not given) | inactive: 3.64% | 
CCc1ccc(S(=O)(=O)Nc2ccc(-c3ccc4nnc(C)n4n3)cc2)s1 | inactive: 14% | 
O=C(OCC1CC(c2ccccc2Cl)=NO1)c1ccc(Br)cc1 (stereo not given) | inactive: -0.379% | 
CC1CN(c2nc(Nc3ccccc3)nc(N)c2[N+](=O)[O-])CC(C)O1 (stereo not given) | inactive: 4.37% | 
Oc1ccc2ccccc2c1N=Nc1ccccn1 | inactive: 5.08% | 
Cc1c(C(=O)N(C)C(C)c2ccccn2)oc2c(F)cccc12 (stereo not given) | inactive: 2.69% | 
COC(=O)c1ccc(-c2c(-c3ccccc3)ncc3cc(OC)c(OC)cc23)cc1 | inactive: 11.1% | 
CCc1cc2c(COC(=O)c3cccc(S(C)(=O)=O)c3)cc(=O)oc2cc1O | inactive: 3.6% | 
CCNC(=O)CON=C1c2ccccc2-c2ccccc21 | inactive: 2.43% | 

SMILES | activation | Potency
CCCc1c(C)c2ccc(OCC(C)=O)cc2oc1=O | inactive: 1.48% | 
COc1cccc(N2C(=O)CN(Cc3ccc(OC)c(OC)c3)C2=S)c1 | inactive: 2.73% | 
N#C/C(=C1\SCC(c2ccccc2Cl)S1)n1ccnc1 (stereo not given) | inactive: -0.484% | 
CCCn1c2ccccc2c2nnc(SC(CC)C(=O)Nc3cc(C)on3)nc21 (stereo not given) | inactive: 8.62% | 
S=c1[nH]nc(-c2ccc3ccccc3n2)n1-c1ccc2c(c1)OCCO2 | inactive: 2.41% | 
COc1ccccc1Nc1cc(C(=O)NCc2cccnc2)c2ccccc2n1 | inactive: 1.83% | 
O=C(c1ccc(COc2ccccc2Br)cc1)N1CCCCC1 | inactive: 2.86% | 
Cn1c2ccc(F)cc2c2nnc(SCC(=O)Nc3cccc(O)c3)nc21 | inactive: 5.35% | 
Cc1cccc(-c2nnc3sc(-c4ccccc4C)nn23)c1 | inactive: 21% | 
COC(=O)c1ccc(CSc2nc3ccccc3c(=O)n2-c2ccccc2)o1 | inactive: 19.4% | 
Cc1ccc(CNc2ccc([N+](=O)[O-])cc2C(N)=O)cc1 | inactive: 4.76% | 
CC1CCN(CCC(=O)Nc2ccc(Br)cc2)CC1 | inactive: -1.4% | 
COc1cc2c(cc1OC)C(COc1ccccc1OC)N(C(=O)c1ccco1)CC2 (stereo not given) | inactive: 6.89% | 
O=C(OCc1ccccc1C(F)(F)F)c1cc([N+](=O)[O-])ccc1N1CCOCC1 | inactive: 9.96% | 
CCOc1cc(CNC(=O)CCCn2c(=O)c3cccn3c3cccnc32)cc(OCC)c1OCC | inactive: 12.7% | 
Cn1ccnc1SCC(=O)Nc1ccc(Cl)cn1 | inactive: -1.47% | 
CCOC(=O)c1cc(-c2ccccc2)sc1NC(=O)C(C)Sc1nnc(C)s1 (stereo not given) | inactive: 3.04% | 
COc1cccc(C(NC(C)=O)c2nc(-c3cccc(C#N)c3)cs2)c1 (stereo not given) | inactive: 2.49% | 
Cc1cc(Br)c2c(c1)=C(c1sc(N3CCCCCC3)nc1O)C(=O)N=2 | inactive: 3.16% | 
CCCn1c(=O)c2c(C(=O)OCC)cc(-c3ccco3)nc2n(CCC)c1=O | inactive: 2.78% | 
O=[N+]([O-])c1cccc(C(=NCc2ccccc2)NO)c1 | inactive: 1.52% | 
COc1ccc(CCN2C(=O)NC(NC(=O)CCc3ccccc3)(C(F)(F)F)C2=O)cc1OC (stereo not given) | inactive: -2.07% | 
O=c1ccc2ccc(OCCOc3cccc(Cl)c3)cc2o1 | inactive: 6.88% | 
